The RNAGym collection of RNA variant scans (doi:10.1093/nar/gkz1192)
Read counts are not given, so values of variants with three or more changes are uncertain.

B1: CPEB3 Ribozyme (parent)
chain: UAACAGGGGGCCACAGCAGAAGCGUUCACGUCGCAGCCCCUGUCAGAUUCUGGUGAAUCUGCGAAUUCUGCUGUAUAUCUC

Variants of: B1
Assay: self-cleavage, relative activity (ratio to wild type); higher = more cleavage; in vitro, sequencing
Procedure, shortened: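 For each CPEB3 ribozyme variant, relative activity is its cleaved/total read fraction divided by the unmutated ribozyme's. Barcoded error-prone PCR libraries were transcribed by T7 RNA polymerase (5 hours, 37°C) and held in DNase I for 15 min before an EDTA stop, with cleavage occurring throughout. Template-switching reverse transcription and Illumina sequencing were used to read the RNAs. A 5-read minimum applied, and results are the mean of three batches.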

Variant	self-cleavage
UAACGGGGGGCCACAGCAGAAGCGUUCACGCCGCAGCCCCUGUCAGAUUCUUGUGAAUCUGCGAAUUCUGCUGUAUAUCUC [A5G U31C G52U]	0.34
UAACUGGGGGCCCCAGCGGAAGUGUUCACGUCGCAGCCCCUGUCAGAUUCUGGUGAAUCUGCGAAUUCUGCUGUAUAUCUC [A5U A13C A18G C23U]	0.53
UAACUGGGGGCCGCAGCAGAAGCGUUCACGUCACAGCCCCUGUCAGAUUCUGGUGAAUCUGCGAAUUCUGCUGUAUGUCUC [A5U A13G G33A A77G]	0.61
UAACGGGGGGCCACAGCAGAAGCGUUCACGUCGCAGCCCCUGUCAGAUUCUGGUGAAUCCGCGAAUUCUGCUGUAUUUCUC [A5G U60C A77U]	0.28
UAACGGGGGGCCACAGCAGAAGCGUUCACGUCGCAGCCCCUGUCAGAUUCUGGUGAAUCUGCGAAUUCUGCUGUAUAACGC [A5G U78A U80G]	1.07
UAACUGGGGGCCGCAGCAGAAGCGUUCACGCCGCAGCCCCUGUCAAAUUCUGGUGAACCUGCGAAUUCUGCCGUAUAUCUC [A5U A13G U31C G46A U58C U72C]	0.18
UAACGGGGGGCCACAGCAGAAGCGUUCACGUCGCAGCCCCCGUCAGAUCCUGGUGAAUCUGCGAAUUCUGCUGUAUAUCUC [A5G U41C U49C]	0.29
UAACGGGGGGCCACAGCAGAAGCGUUCACGUCGCAGCCCCUGUCAGAUUCUGGUGAAUCUGCGAAUUCUGCUGUAUACCCC [A5G U78C U80C]	0.3
UAACGGGGGGCCACAGCAGAAGCGUUCACGUCGCAGCCCCCGUCAGAUUCUGGUGAAUCUACGAAUUCUGCUGUAUAUCUC [A5G U41C G61A]	0.28
UAACUGGGGGCCUCCGCAGAAGCGUCCACGUCGCAGCCCCCGUCAGAUUCUGGUGAAUCUGCGAAAUCUGCUGUAUAUCUU [A5U A13U A15C U26C U41C U66A C81U]	0.44
UAACGGGGGGCCACAGCAGAAGCGUUCACGCCGCAGCCCCUGUCAGAUUCUGGUGAAUCUGCGAAUUCCGCAGUAUAUCUU [A5G U31C U69C U72A C81U]	0.21
UAACGGGGGGCCACAGCAGAAGCGUUCACGACGCAGCCCCUGUCAGAUUCUGGUGAACCUGCGAAUUCUGCUGUAUAUCUC [A5G U31A U58C]	0.4
UAACGGGGGGCCACAGCAGAAGCGUUCACGUCGCAGCCCCUGUCAGAUCCUGGUGAAUCCGCGAAUUCUGCUGUAUAUCCC [A5G U49C U60C U80C]	0.21
UAACGGGGGGCCACAGCAGAAGCGUUCACGUCGCAGCCCCAGUCAGAUUCUGGUGAAUCUGCGCAUUCUGCUGUAUAUCUC [A5G U41A A64C]	0.35
UAACGGGGGGCCACAGCAGAAGCGUUCACGCCGCAGCCACUGUCAGAUUCUGGCGAAUCUGCGAAUUCUGCGGUAUAUCUC [A5G U31C C39A U54C U72G]	0.09
UAACUGGGGGCCGCAGCAGAAGCGUUUACGUCGCAGCCCCUGUCAGAUUCAGGUGAAUCUGCGAAUUCUGCUGUAUAUCUC [A5U A13G C27U U51A]	0.32
UAACUGGGGGCCGCAGCAGAAGCGUUCACGUCGCAGCCCCUGUCAGAUUCUGGUGAAUCUGCGAAUUCUGCUGUACAUCUC [A5U A13G U76C]	0.98

Variant	self-cleavage
UAACGGGGGGCCACAGCAGAAGCGUUCACGUCGCAGCCCCUGCCCGAUUCUGGUGAGUCUGCGAAUUCGGCUGUAUAUCUC [A5G U43C A45C A57G U69G]	0.2
UAACGGGGGGCCACAGCAGAAGCGUUCACGUCGCAGCCCCUGUCAGAUUCUGGUGAAUCCGCGUAUACUGCUGUAAAUCUC [A5G U60C A64U U67A U76A]	0.23
UAACUGGGGGCCGCAGCAGAAGCGUUCACGUCGCAGCCCCUGUCAGAUUCUGGUGGAUCUGCGAAUUAUGCUGUAUAUCUC [A5U A13G A56G C68A]	0.17
UAACGGGGGGCCACAGCAGAAGCGUUCACGUCGCAGCCCCUGUCAGAUCCUGGUGAAUCAGCGAAUUCUGCUGUAUAUCUC [A5G U49C U60A]	0.42
UAACGGGGGGCCACAGCAGAAGCGUUCACGUCGCAGCCCCUGCCAGAUUCUGGUGAAUCUGCGAAUUCUGCUGUAUAACUC [A5G U43C U78A]	0.13
UAACGGGGGGCCACAGCAGAAGCGUUCACGUCGCAGCCCCUGCCAGAUUCUGGUGAACCUGCGAAUACUGCUGUAUAUCUC [A5G U43C U58C U67A]	0.2
UAACGGGGGGCCACAGCAGAAGCGUCCACGCCGCAGCCCCUGUCAGAUUCUGGUGAAUCUGCGAAUCCUGCUGUAUAUCUC [A5G U26C U31C U67C]	0.21
UAACGGGGGGCCACAGCAGAAGCGUUCACGUCGCAGCCCCUGUCAGAUUCUGGUGAAUCUGCGAAUACUGCCGUAUAUCUC [A5G U67A U72C]	0.44
UAACGGGGGGCCACAGCAGAAGCGUCCACGUCGCAGCCCCUGUCAGAUUCUGGUGAAUCUGUGAAUUCUGCCGUAAAUCUC [A5G U26C C62U U72C U76A]	0.14
UAACGGGGGGCCACAGCAGAAGCGUUCACGUCGCAGCCCCCGUCAGAUUCUGGUGAAUCUGCGAAUUCUGCCGUAUAUCUC [A5G U41C U72C]	0.83
UAACGGGGGGCCACAGCAGAAGCGUUCACGUCGCAGCCCCUGCCAGAUCCUGGUGAAUCUGCGAAUUCUGCUGUAUAUCUC [A5G U43C U49C]	0.1
UAACGGGGGGCCACAGCAGAAGCGUUCACGUCGCAGCCCCUGUCAGAUUCUGGAGAAUCUGCGAAUCCUGCUGUAUAUCUC [A5G U54A U67C]	0.17
UAACGGGGGGCCACAGCAGAAGCGUUCACGCCGCAGCCCCCGUCAGAUUCUGGUGAGUCCGCGAAUUCUGCUGUAUAUCUC [A5G U31C U41C A57G U60C]	0.25
UAACGGGGGGCCACAGCAGAAGCGUGCACGCCGCAGCCCCUGUCAGAUUCUGGUGAAUCUGCGAAUUCUGCCGUAUAUCUU [A5G U26G U31C U72C C81U]	0.14
UAACGGGGGGCCACAGCAGAAGCGUCCACGUCGCAGCCCCUGGCAGAUCCUGGUGAAUCUGCGAAUUCUGCUGUAUAUCAC [A5G U26C U43G U49C U80A]	0.15
UAACGGGGGGCCACAGCAGAAGCGUUCACGCCGCAGCCCCUGUCAGAUUCUGGUGAAUCUGCGAAUUCCGCUGUAUAUCUC [A5G U31C U69C]	0.46
UAACGGGGGGCCACAGCAGAAGCGUUCACGUCGCAGCCCCUGUCAGAUUCUGGUGAACCUGCGAAUUCUGCUGUAUAUCCC [A5G U58C U80C]	0.16
